Reference: US20090252729A1 (Biogen, published 2009)

B1: LTβR:scFc fusion polypeptide (EAG2190) (Fc fusion)
chain: SQPQAVPPYASENQTCRDQEKEYYEPQHRICCSRCPPGTYVSAKCSRIRDTVCATCAENSYNEHWNYLTICQLCRPCDPVMGLEEIAPCTSKRKTQCRCQPGMFCAAWALECTHCELLSDCPPGTEAELKDEVGKGNNHCVPCKAGHFQNTSSPSARCQPHTRCENQGLVEAAPGTAQSDTTCKNPLEPLPPEMSGTMV[in this place human IgG1 Fc]GGGSGGGGSGGGGS[in this place human IgG1 Fc with changes]
notes: also called monomeric LTβR:scFc; LTBβ:scFc
B2: GFRα3:scFc fusion protein (ASK057) (Fc fusion)
chain: DPLPTESRLMNSCLQARRKCQADPTCSAAYHHLDSCTSSISTPLPSEEPSVPADCLEAAQQLRNSSLIGCMCHRRMKNQVACLDIYWTVHRARSLGNYELDVSPYEDTVTSKPWKMNLSKLNMLKPDSDLCLKFAMLCTLNDKCDRLRKAYGEACSGPHCQRHVCLRQLLTFFEKAAEPHAQGLLLCPCAPNDRGCGERRRNTIAPNCALPPVAPNCLELRRLCFSDPLCRSRLVDFQTHCHPMDILGTCATEQSRCLRAYLGLIGTAMTPNFVSNVNTSVALSCTCRGSGNLQEECEMLEGFFSHNPCLTEAIAAKMRFHSQLFSQDWPHPTFAVMAHQNEV[in this place human IgG1 Fc]GGGSGGGGSGGGGS[in this place human IgG1 Fc with changes]
notes: also called GFRα3 immunoadhesin

Legend:
[1] = target: T1, LTα1β2 (coated on ELISA plates) (Homo sapiens (Human), UniProt P01374 35-205; Q06643 49-244, Heterotrimer of one alpha and two beta chains, as the name says.); test: ELISA on plates coated with 5 ug/ml LTα1β2, detected with anti-human HRP secondary antibody. The value is parameter C (midpoint) of the four-parameter fit y = ((A-D)/(1+(x/C)^B))+D printed under the plot. The unit is taken from the x axis. The upper plateau of the fit (D 1.147) is not reached within the range shown.
T1 construct: Heterotrimer of one alpha and two beta chains by its name; also called LTa1β2; copies: 1 + 1
T1 sequence (alpha): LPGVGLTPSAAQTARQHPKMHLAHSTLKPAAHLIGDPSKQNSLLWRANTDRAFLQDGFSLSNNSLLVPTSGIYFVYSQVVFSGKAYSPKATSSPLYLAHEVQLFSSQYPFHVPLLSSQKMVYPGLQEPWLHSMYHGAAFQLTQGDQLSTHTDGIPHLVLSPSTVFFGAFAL
T1 sequence (beta): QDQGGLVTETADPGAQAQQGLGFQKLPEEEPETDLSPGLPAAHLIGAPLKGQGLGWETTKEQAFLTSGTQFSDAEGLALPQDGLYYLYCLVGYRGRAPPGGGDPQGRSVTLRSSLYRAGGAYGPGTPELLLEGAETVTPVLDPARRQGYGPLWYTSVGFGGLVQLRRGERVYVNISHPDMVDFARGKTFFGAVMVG
Experimental: FIG. 59A depicts the results of an ELISA evaluating the binding affinity of the monomeric LTβR:scFc to LTα1β2. ELISA plates were coated overnight at 4° C. with 5 ug/ml LTα1β2 in PBS. Plates were then blocked with 1% Casein in 10 mM PBS, pH 7.0, then washed with 10 mM PBS, pH 7.0, 0.1% Tween 20 (wash buffer) three times. LTβR:IgG or LTBβ:scFc serially diluted into 10 mM PBS, 362 mM NaCl, 0.055 Tween-20, 0.1% Casein, 5% FBS pH 7.0 (assay diluent) and incubated for 1 h, then washed with wash buffer. To each well was added Donkey anti-human heavy and light specific HRP (Jackson Labs) conjugated secondary antibody diluted 1:5000 in assay diluents for 60 min then washed with PBS. The HRP was developed using tetramethybenzidine and hydrogen peroxide in 100 mM NaAcetate pH 4.0 after several minutes, the assay was stopped by the addition of 100 uL of 1N sulfuric acid and sample absorbance read at 450 nm.

[2] = target: T2, neublastin, homodimeric; test: solution phase Biacore
T2 construct: also called neublastin dimer
T2 sequence (Q5T4W7 108-220, species assumed, looked up): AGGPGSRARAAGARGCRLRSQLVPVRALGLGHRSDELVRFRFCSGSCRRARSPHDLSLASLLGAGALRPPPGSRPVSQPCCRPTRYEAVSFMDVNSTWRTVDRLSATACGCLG

| Binder | EC50 [1] | stoichiometry (GFRα3:scFc per neublastin dimer) [2] |
| --- | --- | --- |
| B1 | 4.04 µg/mL | – |
| B2 | – | 2 GFRα3:scFc per neublastin dimer |
